# Laboratory results from the supplement of paper PMC4996465.
# Viability of KB3-1 and Nalm-6 cells after 48 h of drug alone (CellTiter-Glo), 11 doses over about 4.5 log units. % of DMSO wells, lower = more cell loss; AC50 from the fitted curve, lower = more potent. No active / inactive call. Nalm-6 was screened in two runs. AC50 is listed only for well-fitted inhibitory curves. KB3-1 is a HeLa-derived carcinoma line, Nalm-6 a B-cell precursor leukaemia line.
# Key:
# [1] = test system: KB3-1; assay: viability (% of DMSO control); higher = more viable cells
# Procedure: (§1)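 Eleven-dose screen of the NCATS MIPE 3 library on cells without co-treatment; CellTiter-Glo after 48 h, as % of DMSO wells.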
# [2] = test system: Nalm-6; assay: as above
# Procedure: as §1
# [3] = test system: KB3-1; assay: log AC50 of viability decrease (48 h) (log10 M); higher = less potent
# Procedure: (§2)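 Eleven-dose screen of the NCATS MIPE 3 library on cells without co-treatment; CellTiter-Glo after 48 h. AC50 from the curve fit; only inhibitory curves of the better fit classes are listed.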
# [4] = test system: Nalm-6; assay: as above
# Procedure: as §2
Structure (SMILES),viability ([1]; 0.00078 µM),viability ([1]; 0.00234 µM),viability ([1]; 0.00702 µM),viability ([1]; 0.0211 µM),viability ([1]; 0.0632 µM),viability ([1]; 0.19 µM),viability ([1]; 0.569 µM),viability ([1]; 1.71 µM),viability ([1]; 5.12 µM),viability ([1]; 15.4 µM),viability ([1]; 46.1 µM),"viability ([2]; run: 1, 0.00078 µM)","viability ([2]; run: 1, 0.00234 µM)","viability ([2]; run: 1, 0.00702 µM)","viability ([2]; run: 1, 0.0211 µM)","viability ([2]; run: 1, 0.0632 µM)","viability ([2]; run: 1, 0.19 µM)","viability ([2]; run: 1, 0.569 µM)","viability ([2]; run: 1, 1.71 µM)","viability ([2]; run: 1, 5.12 µM)","viability ([2]; run: 1, 15.4 µM)","viability ([2]; run: 1, 46.1 µM)","viability ([2]; run: 2, 0.00078 µM)","viability ([2]; run: 2, 0.00234 µM)","viability ([2]; run: 2, 0.00702 µM)","viability ([2]; run: 2, 0.0211 µM)","viability ([2]; run: 2, 0.0632 µM)","viability ([2]; run: 2, 0.19 µM)","viability ([2]; run: 2, 0.569 µM)","viability ([2]; run: 2, 1.71 µM)","viability ([2]; run: 2, 5.12 µM)","viability ([2]; run: 2, 15.4 µM)","viability ([2]; run: 2, 46.1 µM)",log AC50 of viability decrease [3],log AC50 of viability decrease ([4]; run: 1),log AC50 of viability decrease ([4]; run: 2)
CO[C@H]1C[C@@H]2CC[C@@H](C)[C@@](O)(O2)C(=O)C(=O)N2CCCC[C@H]2C(=O)O[C@H]([C@H](C)C[C@@H]2CC[C@@H](OCCO)[C@H](OC)C2)CC(=O)[C@H](C)/C=C(/C)[C@@H](O)[C@@H](OC)C(=O)[C@H](C)C[C@H](C)\C=C/C=C\C=C/1C [Everolimus],84.2%,79.6%,80%,79.4%,80.9%,77.2%,73.3%,75%,72.3%,68.6%,26.3%,84.2%,85.1%,80.8%,76.5%,77.3%,80.8%,77.8%,75.9%,72.6%,67%,-0.71%,89%,83.5%,88.9%,81.9%,89.9%,83.5%,81.4%,89.8%,80%,76.6%,-0.656%,-4.63,-4.63,
CCC(=O)N[C@H]1CC[C@H](C(=O)N(C)c2ccc(-c3nc4ccccc4o3)cc2)C1 [FASN BI],104%,107%,96.9%,108%,105%,106%,110%,98.4%,92%,78.7%,71%,113%,116%,112%,114%,102%,98.5%,102%,94.8%,82.8%,65.2%,44.9%,102%,112%,105%,98.8%,96.2%,104%,101%,102%,81%,68.2%,57.3%,-5.13,-4.93,-5.13
CC1=C(/C=C/C(C)=C/C=C/C(C)=C/C(=O)Nc2ccc(O)cc2)C(C)(C)CCC1 [Fenretinide],103%,101%,105%,102%,97.6%,99.8%,100%,98.1%,97.7%,82.9%,4.68%,109%,106%,108%,106%,104%,101%,73.4%,68.8%,20.6%,11.1%,-0.266%,102%,98.3%,102%,99.4%,102%,88.1%,74%,63%,5.58%,2.38%,0.34%,-4.63,-5.63,-5.73
CN1CC[C@H]([C@@H](O)C1)C2=C(O)C=C(O)C3=C2O\C(=C/C3=O)C4=CC=CC=C4Cl [Flavopiridol???],105%,103%,104%,93.8%,48.6%,25.9%,25.9%,24.9%,24.8%,22.8%,24.4%,120%,119%,106%,87.9%,18%,11.6%,16.4%,15.9%,17.1%,19%,12.6%,108%,108%,98.1%,49.7%,8.88%,10%,17.1%,12.5%,18.5%,17.8%,20.8%,-7.33,-7.58,-7.78
